Results on 88 compounds are retold here after publication PMC4336329 (PLoS ONE, 2015).

Hit rate of the full screen: of about 310,000 compounds, about 2,200 (0.71%) showed an effect of 50% or more. Effects have a minus sign here. The list shows a part of the results.

The target in this test is human ether-à-go-go-related gene (hERG) potassium channel (human, UniProt Q12809). Briefly: primary screen, population patch clamp on CHO cells stably expressing hERG.
Chain of human ether-à-go-go-related gene (hERG) potassium channel (Q12809 whole entry, looked up): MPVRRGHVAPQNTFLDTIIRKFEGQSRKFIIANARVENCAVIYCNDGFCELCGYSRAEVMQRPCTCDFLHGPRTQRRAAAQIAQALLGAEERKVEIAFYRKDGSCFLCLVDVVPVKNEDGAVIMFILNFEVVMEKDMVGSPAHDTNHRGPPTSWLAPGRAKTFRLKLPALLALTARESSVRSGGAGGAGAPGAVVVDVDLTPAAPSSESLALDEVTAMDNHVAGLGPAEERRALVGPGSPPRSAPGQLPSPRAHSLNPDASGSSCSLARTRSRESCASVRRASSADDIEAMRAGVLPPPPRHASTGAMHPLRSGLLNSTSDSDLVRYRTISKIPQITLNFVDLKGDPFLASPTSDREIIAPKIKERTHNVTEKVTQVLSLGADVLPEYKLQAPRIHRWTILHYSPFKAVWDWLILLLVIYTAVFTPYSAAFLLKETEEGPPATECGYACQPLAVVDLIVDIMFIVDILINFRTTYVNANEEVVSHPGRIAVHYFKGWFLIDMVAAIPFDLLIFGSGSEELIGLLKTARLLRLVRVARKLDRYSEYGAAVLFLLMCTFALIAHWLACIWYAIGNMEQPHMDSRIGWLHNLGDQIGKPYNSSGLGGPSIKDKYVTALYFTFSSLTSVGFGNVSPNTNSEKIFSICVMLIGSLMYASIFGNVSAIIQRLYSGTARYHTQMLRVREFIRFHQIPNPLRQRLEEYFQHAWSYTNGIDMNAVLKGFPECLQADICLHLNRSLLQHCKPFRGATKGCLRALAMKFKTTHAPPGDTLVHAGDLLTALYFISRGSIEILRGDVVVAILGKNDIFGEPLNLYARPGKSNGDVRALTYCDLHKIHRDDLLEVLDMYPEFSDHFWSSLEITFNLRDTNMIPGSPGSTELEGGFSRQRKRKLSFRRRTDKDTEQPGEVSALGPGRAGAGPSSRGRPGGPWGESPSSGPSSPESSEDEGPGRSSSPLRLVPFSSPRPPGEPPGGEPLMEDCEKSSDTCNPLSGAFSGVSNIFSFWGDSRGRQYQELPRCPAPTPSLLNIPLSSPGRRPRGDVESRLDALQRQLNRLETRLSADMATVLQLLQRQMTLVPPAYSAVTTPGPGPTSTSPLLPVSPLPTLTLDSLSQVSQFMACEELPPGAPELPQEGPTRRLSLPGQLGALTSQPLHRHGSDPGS
As for `COc1ccccc1OCCC(=O)NNC(=O)c1ccccc1F`, the “hERG current change (%, negative = inhibition) at 1uM” value is 9.54%.

For the compound `COC(=O)c1nnn(-c2nonc2N)c1-c1cccs1`, the “hERG current change (%, negative = inhibition) at 1uM” value was -5.51%. The value for `CCOc1ccccc1NC(=O)C1CCCCN1S(=O)(=O)c1ccccc1` (stereo not shown) was 5.55%; that for `COc1ccc(NC(=O)c2ccc(NC3=NC4CS(=O)(=O)CC4S3)cc2)cc1` (stereo not shown) was 8.84%. The value for `O=C(/C=C/c1cccs1)Nc1sc2c(c1C(=O)O)CCCC2` was 16.9%. Next, `Cc1cc(C)c(OCC(=O)OC(C)C(=O)NC2CC2)c(C)c1` (stereo not shown): 15.9%; `O=C(NC(=S)Nc1ccccc1[N+](=O)[O-])c1ccccc1Cl`: 11.8%; `CCn1c(SCC(=O)Nc2ccc(OC)cc2)nc2c(c1=O)SCC2`: 7.76%. In the case of `Cc1c(Cl)cccc1NC(=S)NCC(O)c1ccccc1` (stereo not shown), the “hERG current change (%, negative = inhibition) at 1uM” value amounted to 11.7%.

In the case of `CCCCc1cn([C@@H](CCCCN)C(=O)N2CCNCC2)nn1.Cl`, the “hERG current change (%, negative = inhibition) at 1uM” value is 11%. Turning to `CCOc1ccccc1NC(=O)C1CCC(=O)N1S(=O)(=O)c1ccc(C)cc1` (stereo not shown), the “hERG current change (%, negative = inhibition) at 1uM” value was 7.24%. Take `CCN(CC(=O)NCCCN1CCOCC1)S(=O)(=O)c1ccc(F)cc1`: the “hERG current change (%, negative = inhibition) at 1uM” value was found to be 11.2%. As for `COc1ccc(C2SCC(=O)Nc3c2c(=O)[nH]n3C2CCCCCC2)cc1OC` (stereo not shown), the “hERG current change (%, negative = inhibition) at 1uM” value was 0.213%. Consider `COc1ccc(C2CC(C(F)(F)F)n3ncc(C(=O)O)c3N2)cc1OC` (stereo not shown), for which the “hERG current change (%, negative = inhibition) at 1uM” value is -6.95%.

In the case of `CCOc1ccc(N(CC(=O)NCCc2ccc(Cl)cc2)S(=O)(=O)c2c(C)[nH]c(=O)[nH]c2=O)cc1`, the “hERG current change (%, negative = inhibition) at 1uM” value was found to be 24.5%.

Take `COc1ccc(C(=O)N2CCN(c3ccc(C(C)=O)cc3F)CC2)cc1S(=O)(=O)NC1CC1`: the “hERG current change (%, negative = inhibition) at 1uM” value is -7.57%.

On to `CCCOc1ccc(NC2=CC(=O)CC(C)(C)C2)cc1`, for which the “hERG current change (%, negative = inhibition) at 1uM” value was 9.5%.

In the case of `COc1ccc(C2C(C(C)=O)=C(Nc3ccccc3)CC(C)(O)C2C(C)=O)cc1OC` (stereo not shown), the “hERG current change (%, negative = inhibition) at 1uM” value came out at 8.63%. For `CCC(C)(C)C1CCc2[nH]nc(C(=O)NC3CCCCC3)c2C1` (stereo not shown), the “hERG current change (%, negative = inhibition) at 1uM” value was 15.5%. With `O=C(Cn1cncn1)N/N=C/c1ccc(Cl)cc1`, the “hERG current change (%, negative = inhibition) at 1uM” value is recorded as 13.1%. In the case of `O=C(c1ccc(S(=O)(=O)N2CCCCCC2)cc1)N1CCCC(C(F)(F)F)C1` (stereo not shown), the “hERG current change (%, negative = inhibition) at 1uM” value worked out at 4.16%. The value for `CCc1cc(=O)oc2c(C)c(OC(C)C(=O)NC3CC(C)(C)NC(C)(C)C3)ccc12` (stereo not shown) was 10.7%. Next, `CC1CCN(S(=O)(=O)c2ccc3c(c2)c(=O)c(C(=O)N2CCCCC2)cn3C)CC1`: -5.71%; `C[N+]1(C)CCC(=C2c3ccccc3CC(=O)c3sccc32)CC1.[I-]`: 11.5%.

On to `CCC(C)NC(=O)C1c2ccccc2C(=O)N1Cc1cc(OC)ccc1OC` (stereo not shown), for which the “hERG current change (%, negative = inhibition) at 1uM” value was 11.7%. The value for `Cc1[nH]n(-c2ccccc2)c(=O)c1C(=O)c1ccc([N+](=O)[O-])cc1` was 10.6%; that for `O=C1CC(c2ccc(F)cc2)Cc2nc(NCC3CCCO3)ncc21` (stereo not shown) was 2.37%. Turning to `Cc1cccc(NC(=O)CNC(=O)CSc2nnc(C(F)(F)F)n2C)c1C`, the “hERG current change (%, negative = inhibition) at 1uM” value came out at 11.7%.

Turning to `O=C1CC(c2nc3ccccc3[nH]2)CN1c1ccccc1F` (stereo not shown), the “hERG current change (%, negative = inhibition) at 1uM” value is -3.67%. Next, `CCCCOCCCNCc1cccn1CCN1CCOCC1.O=C(O)C(=O)O`: 16%; `CC(C)(O)c1ccc2c(c1)CCC1C(C)(C(=O)O)CCCC21C` (stereo not shown): 6.58%; `Cc1ccc(NC(=O)CSc2ncn[nH]2)cc1S(=O)(=O)N1CCOCC1`: 7.37%. Next, `CCOC(=O)c1ccoc1CSCC(=O)N1CCN(S(=O)(=O)c2ccc(C)cc2)CC1`: -10.8%; `COc1cccc(CNc2ncc(Br)cc2Br)c1O`: 13%. Next, `CC(C)Oc1ccc(CNC(=O)CCCN2C(=O)C(c3ccccc3)Oc3cccnc32)cc1` (stereo not shown): 15.9%. With `CC1CC(c2ccccc2)=Nc2ccccc2N1` (stereo not shown), the “hERG current change (%, negative = inhibition) at 1uM” value amounted to 13.6%.

For the compound `CCN(CC)S(=O)(=O)c1ccc(Cl)c(C(=O)Nc2cccnc2)c1`, the “hERG current change (%, negative = inhibition) at 1uM” value is on record as -17%. Consider `O=C1CN2NC(=S)N(c3ccccc3)C2=CN1c1ccc(Cl)cc1`, for which the “hERG current change (%, negative = inhibition) at 1uM” value was determined as 12.7%. The value for `COc1ccc([N+](=O)[O-])cc1NC(=O)COC(=O)C1CC1` was 9.91%; that for `COc1ccc(/C(C)=N/OCC(=O)N=Nc2c(O)[nH]c3ccc(Br)cc23)cc1` was 3.04%.

`Cc1cc(C)n(-c2nc(-c3cccc(Cl)c3)cs2)n1`: the “hERG current change (%, negative = inhibition) at 1uM” value is given as 4.61%. Next, `CC(C)(C)C(=O)NC1CCN(C(=O)N2CCCC2)CC1`: 15%; `Cc1ccnc2ccc(SC(F)(F)F)cc12`: -0.418%. The value for `CC(C)COP(=O)(OCC(C)C)C(O)c1ccc(F)cc1` (stereo not shown) was 7.09%; that for `O=C(CSc1nnc2ccc(-c3ccc(F)cc3)nn12)N1CCCC1` was 4.22%. Next, `CN(C)C=O.NS(=O)(=O)c1cccc(NC(=O)CSc2nc3nc(-c4cccs4)cc(C(F)(F)F)c3c(=O)[nH]2)c1`: 9.16%. As for `CNC(=S)N(Cc1cc2cc(C)cc(C)c2[nH]c1=O)C1CCCC1`, the “hERG current change (%, negative = inhibition) at 1uM” value is listed as 5.88%. The value for `Cc1cnc(C(=O)OCC(=O)C23CC4CC(CC(C4)C2)C3)cn1` was 9.09%; that for `COc1ccc(NC(=O)c2cccc(N3C(=O)c4cccc([N+](=O)[O-])c4C3=O)c2)cc1` was 12.4%; that for `C[C@H](NC(=O)c1cc2cc(Cl)ccc2n1C)C(=O)N1CCC[C@H]1C(=O)O` was 10.8%. Consider `Cc1ccc(NC(=O)COC(=O)CN2C(=O)NC3(CCCC3)C2=O)cc1S(=O)(=O)N(C)C`, for which the “hERG current change (%, negative = inhibition) at 1uM” value came out at 7.79%. The value for `CC(=O)NC(=S)c1c(N)n(Cc2ccccc2)c(=O)n(C)c1=O` was 14.7%; that for `CCc1nnc2c(N(C)S(=O)(=O)c3ccc(C)cc3)nc3ccccc3n12` was 10%. On to `COc1ccccc1NC(=O)CSc1nnc(-c2ccoc2C)o1`, for which the “hERG current change (%, negative = inhibition) at 1uM” value came out at 13.7%. The value for `CCCCn1nnnc1NCc1ccc(C)s1` was 15%; that for `O=C(NC(=S)NCC1CCCO1)c1ccccc1` (stereo not shown) was 11.7%. Next, `Cc1ccc(Cl)cc1NC(=O)C1COc2ccccc2O1` (stereo not shown): 19.1%; `CC1Sc2ccc(S(=O)(=O)CCC(=O)NC3CCCCCC3)cc2NC1=O` (stereo not shown): 10.4%. The value for `C=CCn1c(O)c(/C(C)=N/N2CCN(C)CC2)c(=O)[nH]c1=O` was 15.4%. Regarding `COc1ccccc1CCc1nnc(CCC(=O)N(C)Cc2ccncc2C)o1`, the “hERG current change (%, negative = inhibition) at 1uM” value is 16.2%. Consider `CCN(CC)S(=O)(=O)c1ccc(NN=C(C#N)C#N)cc1`, for which the “hERG current change (%, negative = inhibition) at 1uM” value is given as -2.41%. Next, `CCOc1ccc(-c2nc(CSc3nnc(C)s3)cs2)cc1OC`: 12.2%. The value for `CC(=O)O[C@@H]1[C@H]2[C@@H](C[C@@H](C)[C@@H]3CCC(=O)[C@@]13C)OC(=O)[C@@H]2C` was 7.16%; that for `O=C(Nc1nccs1)c1ccccn1` was -2.14%.

Consider `Cc1ccccc1OCc1nc(-c2ccc(-n3cccc3)cc2)no1`, for which the “hERG current change (%, negative = inhibition) at 1uM” value is listed as 12.5%.

On to `O=C(NCCS(=O)(=O)N1CCN(c2ccccc2)CC1)c1cccc(F)c1`, for which the “hERG current change (%, negative = inhibition) at 1uM” value is on record as 10.6%.

In the case of `Cl.c1ccc(CNc2ccc3c(c2)ncn3C2CCCCC2)nc1`, the “hERG current change (%, negative = inhibition) at 1uM” value is reported as -2.25%.

Take `O=C1NCCN(Cc2ccoc2)C1CC(=O)N(CCO)Cc1ccccc1` (stereo not shown): the “hERG current change (%, negative = inhibition) at 1uM” value is recorded as 21%. Next, `O=C(CCC(=O)Nc1cccc(C(F)(F)F)c1)NCC1CCCO1` (stereo not shown): 10%. With `CCOC(=O)c1c(-c2cccs2)csc1NC(=O)CCCC(=O)O`, the “hERG current change (%, negative = inhibition) at 1uM” value was determined as 1.67%. The value for `CC1CN(C2CC(C)(C)NC(C)(C)C2)CCC1=O` (stereo not shown) was 7.17%. Consider `O=C1N(Cc2cccnc2)C[C@@H]2C[C@@H](c3ccccc3C#Cc3ccccc3)N3CCC[C@@]123`, for which the “hERG current change (%, negative = inhibition) at 1uM” value was -10.9%.

`C[C@H](C(=O)C=[N+]=[N-])N1C(=O)c2ccccc2C1=O`: the “hERG current change (%, negative = inhibition) at 1uM” value was 11.7%. In the case of `CC1=NC(=O)C(N=Nc2cccc(O)c2)N1c1ccccc1` (stereo not shown), the “hERG current change (%, negative = inhibition) at 1uM” value is recorded as 8.56%.

With `Cc1cc(/C(N)=N/OC(=O)Nc2cccc(C(F)(F)F)c2)no1`, the “hERG current change (%, negative = inhibition) at 1uM” value is reported as 1.8%.

Turning to `COc1ccc(NC(=O)CC2C(=O)N(c3ccc(Cl)cc3)C(=S)N2CCc2ccncc2)cc1` (stereo not shown), the “hERG current change (%, negative = inhibition) at 1uM” value was 4.39%.

As to `COc1ccc(CCNC(=O)CSc2nnc(-c3cccc(C)c3)o2)cc1OC`, the “hERG current change (%, negative = inhibition) at 1uM” value is -23.5%. For `c1ccc(-n2ncc3c(NCCCN4CCOCC4)ncnc32)cc1`, the “hERG current change (%, negative = inhibition) at 1uM” value is on record as -2.81%. Turning to `CC(=O)Nc1ccc(N2C(=O)CC(c3ccccc3)CC2=O)cc1`, the “hERG current change (%, negative = inhibition) at 1uM” value was 14.6%. As to `Cc1ccc(OCC(=O)NNC(=O)c2ccc(NC(=O)C3CC3)cc2)c(C)c1`, the “hERG current change (%, negative = inhibition) at 1uM” value was determined as 20.1%.

For the compound `Cc1nn2c(-c3cccc(NC(=O)c4ccco4)c3)nnc2c2ccccc12`, the “hERG current change (%, negative = inhibition) at 1uM” value turned out to be 6.45%.

Consider `COc1ccccc1C(=O)NCC(=O)N/N=C/c1cc(Br)ccc1OCc1ccccc1`, for which the “hERG current change (%, negative = inhibition) at 1uM” value turned out to be 9.76%. For the compound `O=C(COC(=O)CSc1ccc(Br)cc1)NCc1ccco1`, the “hERG current change (%, negative = inhibition) at 1uM” value came to 3.71%. For the compound `COc1cc(OC)cc(-c2c(C#Cc3ccsc3)c3cc(-c4cccc5[nH]ccc45)ccc3n2C)c1`, the “hERG current change (%, negative = inhibition) at 1uM” value turned out to be 8.82%. On to `CCOC(=O)c1c(N=CN(C)C)c(C#N)n2c1CCC2`, for which the “hERG current change (%, negative = inhibition) at 1uM” value stood at 13.7%. Next, `O=C(NCC1COc2ccccc2O1)c1ccc(-n2cncn2)c([N+](=O)[O-])c1` (stereo not shown): -0.414%; `COc1cc(CNc2ccccc2)c([N+](=O)[O-])cc1OC.O=C(O)C(=O)O`: 7.45%. Next, `CCC1(C)Cc2ccccc2C(=O)N1` (stereo not shown): 15.5%.
